Consider eleven sequences from patent US20240329043A1, “METHOD FOR STRATIFICATION AND TREATMENT OF MULTIPLE SCLEROSIS” (Universität Zurich, priority 2021, published 2024).

The experiment has as its system CSF-infiltrating CD4+ T cells from MS patients. The following applies: peptide 10 μM; 105 MS patients; patient positive if mean IFN-γ ≥20 pg/ml and at least 3 of 4 wells positive.

Take “AQGTLSKIFKLGGRDSRSGSPMARR (listed as Homo sapiens) [MBP (146-170)]”: the “Positive patients % IFNγ release” value is on record as 2.85%.

With “EEDEVSIKEAAEAVV (listed as Homo sapiens) [GDP-L-FS (246-260)]”, the “Positive patients % IFNγ release” value turned out to be 8.57%.

For the sequence “FRFTPFKQAVKETCA (listed as Homo sapiens) [GDP-L-FS (296-310)]”, the “Positive patients % IFNγ release” value came to 11.42%.

For “GQFRVIGPRHPIRALVGDEV (listed as Homo sapiens) [MOG (1-20)]”, the “Positive patients % IFNγ release” value amounted to 1.90%.

With “HCLGKWLGHPDKFVGI (listed as Homo sapiens) [PLP (139-154)]”, the “Positive patients % IFNγ release” value was determined as 3.80%.

“KYLATASTMDHARHGFLPRH (listed as Homo sapiens) [MBP (13-32)]”: the “Positive patients % IFNγ release” value was 1.90%.

As for “LSRFSWGAEGQRPGFGYGG (listed as Homo sapiens) [MBP (111-129)]”, the “Positive patients % IFNγ release” value was found to be 4.76%.

For the sequence “MEVGWYRPPFSRVVHLYRNGK (listed as Homo sapiens) [MOG (35-55)]”, the “Positive patients % IFNγ release” value stood at 12.38%.

As to “PHNSNFGYSYAKRMI (listed as Homo sapiens) [GDP-L-FS (136-150)]”, the “Positive patients % IFNγ release” value came to 7.62%.

Take “TAQTRALFEKVQPTH (listed as Homo sapiens) [GDP-L-FS (51-65)]”: the “Positive patients % IFNγ release” value is recorded as 5.71%.

For “YGCTFTAVIPTNVFG (listed as Homo sapiens) [GDP-L-FS (161-175)]”, the “Positive patients % IFNγ release” value was found to be 5.71%.
